# According to the supplement of paper PMC3334620:
# Over roughly 33,000 sequences, “E-score (-0.5 to 0.5)” has its median near -0.021; the highest 2% begin near 0.32. The list shows a part of the results.
# Target: T1, Zap1 (UniProt P47043)
# T1 sequence: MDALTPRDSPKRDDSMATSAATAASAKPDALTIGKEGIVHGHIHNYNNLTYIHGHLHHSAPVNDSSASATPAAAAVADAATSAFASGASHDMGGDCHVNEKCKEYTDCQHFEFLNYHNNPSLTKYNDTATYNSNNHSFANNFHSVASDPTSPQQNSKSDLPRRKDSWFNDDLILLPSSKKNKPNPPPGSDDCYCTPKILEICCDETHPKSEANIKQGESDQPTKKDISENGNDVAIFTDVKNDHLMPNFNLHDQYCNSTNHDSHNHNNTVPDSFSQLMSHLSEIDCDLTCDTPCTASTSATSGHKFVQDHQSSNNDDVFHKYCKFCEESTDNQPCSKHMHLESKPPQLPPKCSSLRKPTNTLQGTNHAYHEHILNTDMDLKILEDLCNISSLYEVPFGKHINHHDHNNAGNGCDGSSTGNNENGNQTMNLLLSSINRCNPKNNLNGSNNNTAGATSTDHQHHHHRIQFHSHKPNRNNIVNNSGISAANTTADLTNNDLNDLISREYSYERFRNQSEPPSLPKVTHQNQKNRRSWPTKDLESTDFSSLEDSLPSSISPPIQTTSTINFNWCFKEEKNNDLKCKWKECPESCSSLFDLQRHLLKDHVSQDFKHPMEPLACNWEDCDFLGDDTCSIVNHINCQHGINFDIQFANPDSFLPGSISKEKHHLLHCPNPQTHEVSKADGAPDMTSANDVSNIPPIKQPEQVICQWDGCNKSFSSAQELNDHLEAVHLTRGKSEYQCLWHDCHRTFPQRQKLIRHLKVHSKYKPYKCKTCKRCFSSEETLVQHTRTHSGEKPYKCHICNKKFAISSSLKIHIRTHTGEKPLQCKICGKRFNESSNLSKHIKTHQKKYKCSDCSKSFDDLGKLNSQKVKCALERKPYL
# Experiment: PBM E-score (8-mer binding enrichment) (E-score (-0.5 to 0.5)); higher = stronger / more preferred TF binding; most listed sequences are background and not binding sites
# Settings: protein concentration: 200 nM; construct: GST-full length
# Procedure, shortened: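 For each ungapped eight-base word taken together with its reverse complement, the Universal PBM Analysis Suite assigned an E-score. Binding data came from GST-tagged yeast transcription factors, applied at about 100-200 nM, on universal all-10-mer Agilent arrays made double-stranded by primer extension. Fluorescent anti-GST marked bound protein, and scans were normalised with masliner.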
row,Sequence,PBM E-score
1,TGGGACAA,0.0979
2,CGCCGATC,-0.0775
3,ACGAACAG,-0.0258
4,ACGATCTG,-0.221
5,AGCAGGGC,-0.19
6,GCACCGCC,-0.133
7,GCATGAAA,0.0763
8,CTGGTATC,-0.0766
9,CGCCCTGA,-0.151
10,AAGACATT,-0.161
11,GATCGGTA,0.0187
12,ACATGGAG,-0.288
13,GAGCTCCA,-0.146
14,AGCATCAC,-0.186
15,ATAATTAA,0.283
16,ACAAGTGT,-0.0701
17,TAACGCCA,-0.00924
18,AGCTACTG,-0.0511
19,TGATTACA,0.0808
20,ATGCCTAG,-0.142
21,CAACCTCC,0.11
22,AGTATCCA,0.0249
23,ATCAAGAA,0.169
24,AAGATGAA,-0.119
25,ACCCCTAT,0.324

row,Sequence,PBM E-score
1,CGACCTGC,-0.098
2,GTCAACGA,0.088
3,CAGTGTGA,-0.00553
4,CGATGTGC,-0.193
5,GATGGCCA,0.202
6,ACTCCCAC,-0.172
7,TGATACAA,0.0581
8,GTGCGTTA,0.0111
9,ACCATTCT,0.0676
10,CACCCTGA,0.162
11,GACAGGAA,0.0503
12,CACCCTCC,0.326
13,TAACTACA,0.25
14,CAAAACAC,0.167
15,CTGCGCAA,-0.131
16,CGATCCGA,-0.0912
17,ACGTAGAG,-0.136
18,CTGTATGA,-0.101
19,AAACCTTC,0.106
20,AACGAGCT,-0.167
21,CCCGACTC,-0.113
22,AGTGGAAG,-0.204
23,ATGAACTG,0.0254
24,CCAGTAGC,-0.134
25,GATTGTTA,0.0692

row,Sequence,PBM E-score
1,CCTCAGCG,-0.135
2,AGTGCAGA,-0.0375
3,AACAAGTT,0.0719
4,ACTCCTCA,-0.261
5,AGGTCGTA,0.189
6,AAAACCGC,0.16
7,AGTACAGC,-0.186
8,AAACTCCA,-0.0324
9,ATACAATC,-0.0527
10,ACGACTAG,-0.0356
11,CGCCCGCC,-0.137
12,ACGGGGCG,0.0523
13,CACGACGC,-0.0412
14,CATGGCGC,-0.101
15,ATCCATTA,0.125
16,AGATTTGC,-0.0426
17,CGCATCCG,-0.182
18,AACGCATG,-0.11
19,ATACATCG,-0.0304
20,ATCGCCAA,-0.061
21,ACCATGCG,-0.0399
22,GGGTCGCA,0.264
23,CATTGGTA,0.0623
24,ATGTCCTC,0.0186
25,CGCCTATC,-0.204

row,Sequence,PBM E-score
1,GCTCTTGA,-0.213
2,ACTACCAG,-0.0188
3,AGTCATGG,-0.00999
4,CGTGTGGC,-0.208
5,CTCACACC,-0.06
6,AATAAAGT,0.239
7,AGAGAATG,-0.0214
8,TCTATCAA,0.0482
9,CCCTGCTA,-0.0286
10,GCTATGCC,-0.27
11,GGCGATGA,-0.261
12,AGCCCGAG,-0.149
13,AGAGCTCT,-0.378
14,CGGCCAGC,-0.215
15,CCAAGCCG,-0.112
16,ACCAGCAC,0.00044
17,AAGGAGTA,-0.0173
18,CCTCGAAA,0.111
19,ATCGTCTA,-0.148
20,CGACGTGC,-0.259
21,CGAACTTA,0.0786
22,AATTGTCG,-0.0744
23,TATGGCCA,0.164
24,CTTAACTC,0.0138
25,AGTCGACA,0.04

row,Sequence,PBM E-score
1,AAGGTATA,0.237
2,ATCCGCGA,-0.0356
3,ACCAATGG,0.201
4,TAAGCGCA,-0.0722
5,CCCCAGAA,0.189
6,CACCCACC,0.194
7,TAAGTTGA,0.0648
8,ACAGTCAC,-0.171
9,GGCATACA,-0.15
10,CCCAGAGC,-0.139
11,CAGGCGTA,-0.0918
12,ACTTCCCT,0.0737
13,GAGTGCCC,-0.226
14,GGTTCACA,-0.0618
15,GGACTTCA,-0.103
16,CGTAGCAG,-0.0847
17,ACTTGGCA,-0.112
18,GATGGACC,0.135
19,CGACGCAC,-0.0191
20,GTTCTCAA,0.15
21,AGCCTATG,-0.125
22,ACTACAAG,-0.0104
23,ACTTCGCG,0.123
24,CGCGCACG,0.0211
25,CGCTTTCA,-0.0291

row,Sequence,PBM E-score
1,GACATGAA,-0.00976
2,CGTCTGTC,-0.249
3,CTACAAGA,0.0478
4,AATACTCG,0.00335
5,CAGCTCCG,-0.0528
6,CTCTAACC,0.136
7,TAAGCCTA,0.111
8,AACTATAA,0.0107
9,CTTCTAAC,-0.0941
10,TCTTTGCA,-0.00705
11,AAGCGTGC,-0.0502
12,CATGTAGC,-0.125
13,CCGCAGAA,0.0829
14,GCATACGA,-0.0508
15,ATGACCCG,0.269
16,CGTTTTCC,-0.141
17,CTCAGGTC,0.145
18,CACTTGCC,-0.197
19,CTCAACCC,0.201
20,GCCACCAC,0.0146
21,CATGACCC,0.38
22,ATTTATGG,0.217
23,CTGCCTAA,-0.0639
24,GGAACAGA,-0.0482
25,CGATGTTA,0.0463

row,Sequence,PBM E-score
1,CAACTTAA,0.0997
2,CCTGTGCG,0.00281
3,AGTAGAAA,0.164
4,CACTTACC,0.11
5,CGGGGAAA,-0.0233
6,TGCCATAA,-0.0856
7,GAAGTAAC,0.126
8,TACCCTAA,0.435
9,GTGCAACA,-0.159
10,GTGTGATA,0.0955
11,AGGTTTAT,0.15
12,AGGGTACC,0.461
13,GCGACATA,-0.0703
14,GATATCCC,0.0463
15,AATTCACC,0.0819
16,AAGATGGC,-0.0782
17,ATGATCGA,-0.0722
18,ACGGATCC,-0.0798
19,GATATGCA,-0.0775
20,CAATGTGC,-0.197
21,GACGTTAC,0.179
22,GTCTGGAA,-0.0756
